Source: PMC6919601, “Identification of Plasmodium dipeptidyl aminopeptidase allosteric inhibitors by high throughput screening” (PLoS ONE, 2019)
The campaign covered roughly 110,000 compounds. About 230 (0.21%) showed an effect of 50% or more. Some of the results follow.

Each molecule was assayed against DPAP1 (Plasmodium falciparum, UniProt Q8IIJ9) (assay: primary screen, percent inhibition; read by cleavage of a fluorogenic dipeptide substrate; higher = more effect of the substance).
Design: species or system P. falciparum D10 trophozoite lysates; single well
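Also: 30 min substrate incubation versus DMSO and 10 µM JCP410 controls.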

Chain of DPAP1 (Q8IIJ9 whole entry, looked up): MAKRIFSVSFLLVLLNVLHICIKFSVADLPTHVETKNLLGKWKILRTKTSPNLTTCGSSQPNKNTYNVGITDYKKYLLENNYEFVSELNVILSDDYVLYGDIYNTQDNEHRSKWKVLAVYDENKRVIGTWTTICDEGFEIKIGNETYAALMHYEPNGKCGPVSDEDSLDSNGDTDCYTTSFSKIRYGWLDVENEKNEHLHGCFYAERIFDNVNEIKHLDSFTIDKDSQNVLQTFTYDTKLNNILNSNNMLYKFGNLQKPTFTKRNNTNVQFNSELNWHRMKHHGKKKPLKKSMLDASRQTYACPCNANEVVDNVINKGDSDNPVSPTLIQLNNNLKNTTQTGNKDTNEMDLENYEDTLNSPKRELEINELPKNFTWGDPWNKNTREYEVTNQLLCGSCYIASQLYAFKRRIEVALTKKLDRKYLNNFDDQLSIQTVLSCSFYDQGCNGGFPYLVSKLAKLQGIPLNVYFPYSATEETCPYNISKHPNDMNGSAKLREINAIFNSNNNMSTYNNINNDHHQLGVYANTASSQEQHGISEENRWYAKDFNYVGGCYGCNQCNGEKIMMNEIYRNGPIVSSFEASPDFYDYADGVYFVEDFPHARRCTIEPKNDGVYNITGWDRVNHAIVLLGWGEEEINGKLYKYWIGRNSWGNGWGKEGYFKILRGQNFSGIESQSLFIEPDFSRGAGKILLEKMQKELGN

SMILES | % Inhibition @ 10 uM [%]
COc1ccc(C(=O)NO/C(O)=C/C(C)=N/Cc2ccccc2)cc1 | 8.61
Cc1ccc2[nH]c(NCCO)nc2c1 | -1.56
CCn1c2ccccc2c2cc(CN3CC=C(c4ccc(F)cc4)CC3)ccc21 | -5.31
Cc1ccccc1NC(=O)c1cc(SCCS(=O)(=O)c2ccc(Cl)cc2)ccc1Cl | 6.03
Cn1c(NC(=O)COc2ccc(Cl)cc2)cc(=O)n(C)c1=O | 2.32
CC(=O)c1ccc(NC(=O)c2cccc(S(=O)(=O)Nc3ccc(C(C)=O)cc3)c2)cc1 | 6.31
CCOc1ccc(/C=C/c2nc(C#N)c(NCCN(C)C)o2)cc1 | 0.895
CC(C)C(=O)N(Cc1ccco1)C1CCS(=O)(=O)C1 (stereo not drawn) | 2.19
CCn1c(=O)c(C(=O)NCCN2CCCCC2)c(O)c2ccccc21 | 0.878
CCN(/C=N/c1sc2c(c1C#N)CCCCC2)CC | 5
Cc1nc2c(c(C)c1CCC(=O)NCCN1CCc3ccccc3C1)c(=O)n(C)c(=O)n2C | 2.12
Cc1ccc(N2NC(=O)/C(=C/c3ccc(-c4cccc([N+](=O)[O-])c4)o3)C2=O)cc1C | -0.582
CC1(C)C(C=C(Cl)Cl)C1C(=O)N1CCN(c2ccccc2)CC1 (stereo not drawn) | -2.56
CCOC(=O)C1=C(c2ccc(OC)cc2)OC(N)=C(C#N)C1c1ccc(F)cc1 (stereo not drawn) | 1.31
N#CCNC(=O)[C@H](Cc1c(F)cccc1F)NC(=O)c1ccc(-c2c(Cl)cc(C(=O)O)cc2Cl)cc1 | 1.61
Cc1ccc(C2SCCN2S(=O)(=O)c2ccc(C)cc2)cc1 (stereo not drawn) | 0.13
Cc1cc(C)c(C2C(C#N)=C(N)Oc3[nH]nc(C)c32)c(C)c1 (stereo not drawn) | -2.74
CC1=C(C(=O)OC2CCCC2)C(c2ccc(C)cc2)CC(=O)N1 (stereo not drawn) | 3.67
CCN(CC)CCN(CC)Cc1ccccc1F | 1.08
O=C(Nc1cccc(Cl)c1)c1ccc(Cl)cc1 | -5.38
Fc1ccc(-n2c(-c3ccccc3)nnc2-c2ccco2)cc1 | 5.2
Cc1cc(C(=O)NC2CCCCC2C)cs1 (stereo not drawn) | 3.5
N#CC1=C(N)OC2=C(C(=O)CCC2)C1c1cc(Br)cs1 (stereo not drawn) | 1.96
O=C(O)CCC(=O)Nc1sc2c(c1C(=O)Nc1cccc3ccccc13)CCCCC2 | -2.6
Cc1ccc(N2C(=O)c3ccccc3C2=O)cc1F | 2.54
COc1ccc(S(=O)(=O)N(CCc2ccccc2)CC(=O)N2CCCC2)cc1 | 0.484

SMILES | % Inhibition @ 10 uM [%]
COC(=O)c1sccc1NC(=O)Cn1nnc(-c2ccccc2)n1 | 2.99
COc1cccc(-c2c(C)c(C)nc(N)c2C#N)c1 | 2.77
Cc1cc2nc(SCCN(C)C)[nH]c2cc1C | 0.132
Cc1ccsc1CN1CCN(c2ccccc2)CC1 | 3.8
Cc1cc(-c2ccc(C)c(S(=O)(=O)NCC3CCN(CCc4cccs4)CC3)c2)on1 | 6.14
COCCNC(=O)Cn1sc2nc(C)cc(C)c2c1=O | -3.08
Cc1noc(C)c1S(=O)(=O)N1CCCCCC1 | -7.54
Cc1ccccc1OCC(O)Cn1c(N2CCCCCC2)nc2c1c(=O)[nH]c(=O)n2C (stereo not drawn) | 7.5
O=C(Nc1cccnc1)c1ccc2c(c1)OCO2 | -3.39
Cc1ccc(N2C(=O)c3ccc(C(=O)N4CCOCC4)cc3C2=O)cc1C | -6.75
C/C(=N\N=C(/C=C/c1ccccc1)/C=C/c1ccccc1)c1nnn(-c2nonc2N)c1C | -7.3
CC1CN=C(Nc2ccc(NC3=NCC(C)S3)cc2)S1 (stereo not drawn) | 5.4
CCOC(=O)/N=C(/N[C@@H](CC(C)C)C(=O)NCC#N)c1ccccc1 | -6.98
CC(C)Cc1nc2ccccc2n1Cc1ccc(F)cc1 | -2.28
Cc1cc(OCC(=O)N(Cc2nc(-c3ccccc3)no2)C(C)C)cc(C)c1Br | 1.94
O=C(NCc1ccccn1)C1CCN(c2nnc(-n3cccc3)s2)CC1 | -0.522
Cc1cc2nc(O)c(O)nc2cc1S(=O)(=O)NCc1ccccn1 | 2.74
CN(C(=O)C(Cc1ccccc1)n1cccc1)C1CCCCC1 (stereo not drawn) | -6.07
Cc1onc(-c2c(Cl)cccc2Cl)c1C(=O)Nc1ccc2c(c1)OCCO2 | -1.98
Nc1nnc(SCc2cccnc2)s1 | 2.37
c1ccc(CNc2ccccn2)cc1 | -6.82
Cc1ccc(-c2noc(CCC(=O)NC3CCCC3)n2)cc1 | 4.58
CC12c3ccccc3C(C)(c3ccccc31)C1C(=O)N(c3ccc(C(=O)O)cc3)C(=O)C12 (stereo not drawn) | -1.28
COc1ccc(OCC(=O)Nc2cc(C)ccn2)cc1 | 6.42
O=C(Nc1cccc(C(F)(F)F)c1)c1cc2ccccc2cc1O | 3.8
CCc1nnc(NC(=O)Cc2coc3ccc(C(C)C)cc23)s1 | 1

SMILES | % Inhibition @ 10 uM [%]
CCCCN(C)Cc1cc([N+](=O)[O-])ccc1O | 1.88
Cc1ccccc1CSCC(=O)Nc1cccc(N(C)S(C)(=O)=O)c1 | -0.968
O=C1C=C/C(=N\S(=O)(=O)c2ccc(Cl)cc2)c2ccccc21 | -1.52
O=C(O)CCNS(=O)(=O)c1cccs1 | 4.35
O=C(c1cc2ccccc2nc1-c1ccco1)C(F)(F)F | -4.81
Cn1c(=O)c2c(nc(CN3CCN(Cc4ccccc4)CC3)n2CCN2CCOCC2)n(C)c1=O | 5.5
Cc1ccc(-n2nc3c(N4CCC(C(=O)NCCCN5CCCC5=O)CC4)nnc(C)c3c2C)cc1 | 6
CCCN(CCO)Cc1cccc(F)c1 | -7.34
O=C(c1ccccc1[N+](=O)[O-])N1CCN(c2cccc(C(F)(F)F)c2)CC1 | -5.62
CC(=O)Nc1ccc(C(=O)CSc2ccc(C(C)(C)C)cc2)cc1 | -1.6
O=C(CCc1ccccc1)Nc1sc2c(c1C(=O)O)CCCC2 | 15.1
CCOC(=O)N1CCN(C(=O)Cn2ncc3c4ccccc4n(Cc4ccccc4F)c3c2=O)CC1 | 3.2
CCc1cccc(CC)c1NC(=O)c1ccc(C)o1 | 2.03
CC1(C)CC(=O)c2cc(OCC(=O)NCc3ccc(F)cc3Cl)ccc2O1 | -6.88
Cc1nc2c([N+](=O)[O-])c(Cl)c(Cl)cc2[nH]1 | 3.32
Cc1cccc(C)c1OCc1nc2c3cnn(-c4c(F)c(F)cc(F)c4F)c3ncn2n1 | 8.19
CCc1nc2cccnc2n1-c1ccc(CC(=O)NC(C)CC)cc1 (stereo not drawn) | 0.107
CC(C)C(=O)Nc1cc(-c2ccccc2)no1 | -1.47
CN1CCN(C(=O)C2CCN(C(=O)c3cnn(-c4ccccc4)c3-n3cccc3)CC2)CC1 | 1.8
CCN(C(=O)COc1ccc(Cl)cc1Cl)c1ccccc1 | -5.41
Cn1c(CCCNC(=O)c2ccccc2)nc2ccccc21 | -2.01
CCOC(=O)c1c(S(=O)(=O)N(C)Cc2ccco2)c(C)n(C)c1C | -2.81
CCCCc1ccc(NS(=O)(=O)c2ccc(Cl)cc2)cc1 | -2.12
CCCOc1ccc(/C=C2/C(=O)ON=C2C)cc1OCC | -0.386
Fc1ccccc1C1CN(c2ccccc2)N=C1c1ccccc1 (stereo not drawn) | 3.44
COc1cc(S(=O)(=O)N2CCN(c3cccc(C(F)(F)F)c3)CC2)c(C)cc1C | 0.245

SMILES | % Inhibition @ 10 uM [%]
COc1ccc(C(=O)c2oc3ccccc3c2NC(=O)c2ccccc2)cc1 | -3.06
Cc1cccc(NC(=O)C(C)Oc2ccccc2C)c1 (stereo not drawn) | -1.42
COc1ccccc1C(=O)NC(C)c1cc2c(cc1Cl)OCCO2 (stereo not drawn) | -0.251
O=C(CSCc1cnn(-c2ccccc2)c1-n1cccc1)N1CCC(N2CCCCC2)CC1 | -2.85
Cc1nc(Nc2nc(C)c3ccccc3n2)nc(O)c1Cc1ccccc1 | -0.545
CN(CCCNC(=O)C1CCN(c2ncnc3c2nc2n3CCCCC2)CC1)Cc1ccccc1 | 0.244
C=CCCC(C)(C#CCN1CCCCC1)OC(C)=O (stereo not drawn) | -2.54
CCCCCC(=O)Nc1nc2c(C)cccc2s1 | 2.01
Cc1sc2[nH]c(=S)n(-c3ccc(Cl)cc3)c(=O)c2c1C | 51.2
Cn1nccc1C(=O)Nc1ccn(Cc2c(F)c(F)cc(F)c2F)n1 | -7.55
O=C(CC(c1ccccc1)c1c(O)c2ccccc2oc1=O)c1ccc(-c2ccc(Br)cc2)cc1 (stereo not drawn) | 0.132
COc1ccc(Nc2oc(COc3ccccc3OC)nc2C#N)cc1 | 3.62
Cc1ccc(OCCCc2c(C)n[nH]c2C)cc1 | 6.53
COc1ccc(C2CC(C(F)(F)F)n3ncc(C(=O)NC(C)(C)C)c3N2)cc1 (stereo not drawn) | 4.33
CCOc1cc2c(cc1OCC)C(c1ccc(OC)c(OC)c1Cl)NCC2 (stereo not drawn) | 3.57
O=C(CCN1C(=O)c2cccc3cccc(c23)C1=O)Nc1cccc(Br)c1 | 1.85
CCCN1C(=O)C(O)(CC(=O)c2ccc(Br)cc2)c2ccccc21 (stereo not drawn) | -4.5
CCOc1cc(C)c(S(=O)(=O)NC2CC(C)(C)NC(C)(C)C2)cc1C | 1.49
COc1ccccc1/C=C/C=C1N=C(/C=C/c2ccc(Cl)cc2)OC/1=O | -1.12
Cc1ccc(-n2nc3c(=O)n(CCCC(=O)NCc4ccccn4)nc(C)c3c2C)cc1 | -4.38
Fc1ccc2c(c1)c1nnc(S)nc1n2CCc1ccccc1 | 10.9
CCN(CC)c1ncnc2sc(C(=O)NCc3ccccc3OC)c(C)c12 | -2.17
COCCN(CCOC)S(=O)(=O)c1ccc(/C(O)=C(\C#N)c2nc3ccccc3[nH]2)cc1 | 2.7
CNC(=O)c1cc2c(C)nn(-c3ccccc3)c2s1 | 4.15
